Experimental data published in the supplement of paper PMC10369915.
The other results are listed elsewhere or left out. No stated cut-off is given here; in the data, active = 3.2 or more and inactive = the rest. Most of these values are background signal.

B1: DNER_HUMAN_711_YA (peptide)
chain: KKSRPAMYDVSPIAA
B2: DDR2_HUMAN_741_YA (peptide)
chain: NLASGDAYRIQGRAV
B3: DDR2_HUMAN_741 (peptide)
chain: NLYSGDYYRIQGRAV
B4: DDR2_HUMAN_736 (peptide)
chain: FGMSRNLYSGDYYRI
B5: DDR2_HUMAN_471 (peptide)
chain: EQGSNSTYDRIFPLR
B6: DDR1_HUMAN_740 (peptide)
chain: AQGPTISYPMLLHVA
B7: DPYL2_HUMAN_431 (peptide)
chain: THNSSLEYNIFEGME
B8: DAPP1_HUMAN_139 (peptide)
chain: KVEEPSIYESVRVHT
B9: DOK1_HUMAN_362 (peptide)
chain: DPKEDPIYDEPEGLA
B10: DCLK1_HUMAN_520 (peptide)
chain: KPENLLVYEHQDGSK
B11: DOK1_HUMAN_449 (peptide)
chain: KSHNSALYSQVQKSG
B12: DDR1_HUMAN_797_YA (peptide)
chain: NLAAGDAYRVQGRAV
B13: DOK1_HUMAN_398 (peptide)
chain: ARVKEEGYELPYNPA
B14: DLG4_HUMAN_580 (peptide)
chain: YEIDGRDYHFVSSRE
B15: DDR2_HUMAN_736_YA (peptide)
chain: FGMSRNLYSGDAARI
B16: ACBP_HUMAN_29_YA (peptide)
chain: DEEMLFIYGHAKQAT
B17: DOK1_HUMAN_341_YA (peptide)
chain: KPLAWDLYEHAQQQL
B18: DNER_HUMAN_721 (peptide)
chain: SPIAYEDYSPDDKPL

These binders were tested against SHP2 C-SH2 domain E139D (assay: enrichment score (SH2-bound / input frequency) (ratio); bacterial display of known human phosphotyrosine sites (pTyr-Var adds point mutants) read by sequencing; higher = stronger binding; tyrosines were phosphorylated by kinases first). Settings: peptide library: Human pTyr.
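Further: displayed peptides selected on beads carrying the immobilized SH2 domain, with library peptides lacking any tyrosine serving as negative controls.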

Enrichment score, inactive:
B1 1.19
B2 0.769
B3 0.943
B4 0.823
B5 0.6
B6 0.787
B7 1.08
B8 0.905
B9 1.19
B10 1.11
B11 1.15
B12 0.783
B13 0.833
B14 0.715
B15 0.468
B16 1
B17 0.689
B18 0.865

These binders were tested against SHP2 C-SH2 domain wild-type in the same assay as above. Settings: peptide library: Human pTyr.

Enrichment score, inactive:
B1 1.09
B2 0.625
B3 0.899
B4 0.898
B5 0.412
B6 0.734
B7 1.1
B8 0.729
B9 1.11
B10 0.671
B11 1.42
B12 0.583
B13 0.843
B14 0.583
B15 0.475
B16 0.874
B17 0.651
B18 0.804

What follows are binders tested against SHP2 N-SH2 domain L43F in the same assay as above. Settings: peptide library: Human pTyr.

Enrichment score, inactive:
B1 1.25
B2 0.708
B3 0.779
B4 0.689
B5 0.618
B6 0.99
B7 1.06
B8 0.681
B9 1.2
B10 0.599
B11 1.21
B12 0.737
B13 0.549
B14 0.683
B15 0.644
B16 0.916
B17 0.722
B18 0.819

These binders were tested against SHP2 N-SH2 domain T42A in the same assay as above. Settings: peptide library: Human pTyr.

Enrichment score, inactive:
B1 1.29
B2 0.666
B3 0.85
B4 0.821
B5 0.474
B6 0.863
B7 1.05
B8 0.707
B9 1.11
B10 0.765
B11 0.906
B12 0.7
B13 0.609
B14 0.483
B15 0.575
B16 0.826
B17 0.675
B18 1.01

What follows are binders tested against SHP2 N-SH2 domain T52S in the same assay as above. Settings: peptide library: Human pTyr.

Enrichment score, inactive:
B1 1.29
B2 0.652
B3 0.804
B4 0.752
B5 0.473
B6 0.914
B7 1.05
B8 1.62
B9 1.32
B10 0.738
B11 1.15
B12 0.709
B13 0.682
B14 0.503
B15 0.543
B16 1.17
B17 0.755
B18 0.926

The binders below were run against SHP2 N-SH2 domain wild-type in the same assay as above. Settings: peptide library: Human pTyr.

Enrichment score, inactive:
B1 1.42
B2 0.687
B3 0.945
B4 0.885
B5 0.439
B6 0.749
B7 1.27
B8 1.01
B9 1.34
B10 0.589
B11 1.66
B12 0.786
B13 0.629
B14 0.638
B15 0.555
B16 1.01
B17 0.759
B18 1.02
